Assay results reported in PMC6919601, “Identification of Plasmodium dipeptidyl aminopeptidase allosteric inhibitors by high throughput screening” (PLoS ONE, 2019).
“And” between values parts separate entries of the source, which are not always exact repeats. Equal values may be shown once. About 230 (0.21%) of roughly 110,000 compounds showed an effect of 50% or more. Some of the results follow.

Molecular target: DPAP1 (Plasmodium falciparum, UniProt Q8IIJ9)
Assay: primary screen, percent inhibition; read by cleavage of a fluorogenic dipeptide substrate; higher = more effect of the substance
Set-up: species or system P. falciparum D10 trophozoite lysates; single well
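Further: 30 min substrate incubation versus DMSO and 10 µM JCP410 controls.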

Chain of DPAP1 (Q8IIJ9 whole entry, looked up): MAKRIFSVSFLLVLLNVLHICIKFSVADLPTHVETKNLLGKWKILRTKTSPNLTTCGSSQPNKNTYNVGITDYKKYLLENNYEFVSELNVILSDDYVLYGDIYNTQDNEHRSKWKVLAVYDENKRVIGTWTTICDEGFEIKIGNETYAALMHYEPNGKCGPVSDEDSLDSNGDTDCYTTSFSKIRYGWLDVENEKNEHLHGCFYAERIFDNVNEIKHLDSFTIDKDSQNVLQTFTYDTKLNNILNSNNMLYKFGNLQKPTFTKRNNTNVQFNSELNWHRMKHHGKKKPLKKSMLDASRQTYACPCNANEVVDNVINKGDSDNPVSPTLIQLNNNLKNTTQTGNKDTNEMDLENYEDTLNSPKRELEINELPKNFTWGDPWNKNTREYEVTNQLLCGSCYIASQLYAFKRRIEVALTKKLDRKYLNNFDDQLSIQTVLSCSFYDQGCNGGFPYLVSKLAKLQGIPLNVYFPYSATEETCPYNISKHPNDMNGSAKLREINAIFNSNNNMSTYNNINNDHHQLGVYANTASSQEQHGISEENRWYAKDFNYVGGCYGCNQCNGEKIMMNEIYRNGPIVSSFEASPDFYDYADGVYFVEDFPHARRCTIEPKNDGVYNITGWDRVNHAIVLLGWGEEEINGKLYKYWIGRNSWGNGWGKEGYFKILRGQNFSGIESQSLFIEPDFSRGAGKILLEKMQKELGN

SMILES	% Inhibition @ 10 uM
CC(=O)c1ccc2c(c1)CC(C)C(=O)N2C (stereo not drawn)	-1.43%
CCC(C)NC(=O)c1ccccc1NC(=O)CN(c1cccc(Cl)c1)S(C)(=O)=O (stereo not drawn)	-2.32%
COc1ccc(Cl)cc1NC(=O)c1cc2n(n1)C(C(F)(F)F)CC(c1ccco1)N2 (stereo not drawn)	0.812%
O=C(NCCC1=CCCCC1)Nc1cccc2ccccc12	1.88%
CNC(=O)COc1ccc(C23CC4CC(CC(C4)C2)C3)cc1	-4.23%
Cc1cc(C)n(CC(=O)Nc2ccccc2)n1	-6.99%
COCCCn1c(SC2CCOC2=O)nc2c(sc3ccccc32)c1=O (stereo not drawn)	-0.975%
CCn1cc(C(=O)Nc2ccccc2C(=O)O)cn1	12.2%
OC1(c2ccc(Br)cc2)CCN(C2CCC(c3ccccc3)CC2)CC1 (stereo not drawn)	-2.95%
CCOC(=O)c1c(C)[nH]c(-c2ccccc2)c1-c1ccccc1	-1.77%
CCN(CC)S(=O)(=O)c1ccc(-c2csc(Nc3cccc(OC)c3)n2)cc1	-0.591%
Cc1ccccc1-c1nc(CS(=O)(=O)CC(=O)N(C)C2CCCCC2)c(C)o1	2.99%
Cc1onc(-c2ccccc2)c1C(=O)Nc1sc2c(c1C#N)CCCC2	4%
COc1ccc(C2CC3=Nc4ccccc4N(C(C)=O)C(c4ccco4)C3=C(O)C2)cc1 (stereo not drawn)	0.76%
N#C/C(=C\c1ccc(Cl)cc1)c1nc(-c2ccc(Cl)c(Cl)c2)cs1	-10.1%
O=C(O)CSc1ccc(C(=O)N2CCOCC2)cc1[N+](=O)[O-]	0.00784%
CCOC(=O)C1CCCCN1Cc1cccc(Br)c1 (stereo not drawn)	-5.41%
O=C1CC(c2nc3ccccc3n2Cc2ccccc2)CN1c1ccccc1 (stereo not drawn)	1.92%
O=C(Nc1ccccc1C(=O)NCCCCO)c1ccco1	1.05%
CCOC(=O)C1=C(CC)OC(N)=C(C#N)C1c1cccc(F)c1 (stereo not drawn)	-1.38%
O=C(Cn1ncc2ccsc2c1=O)NCc1ccc2c(c1)OCO2	7.96%
OC1=C2C(=Nc3nc4ccccc4n3C2c2ccccc2O)CC(c2ccco2)C1 (stereo not drawn)	0.221%
Cc1c(C(=O)N2CCCCC2C)sc2nc(-c3ccc(F)cc3)cn12 (stereo not drawn)	-1.89%
CC1=C(C)CC(C(=O)NC2CCCCC2)C(C(=O)O)C1 (stereo not drawn)	2.03%
O=C(O)C(Cc1ccccc1)n1cnnn1 (stereo not drawn)	-0.426%
CN1CCN(C(=O)c2[nH]c3ccccc3c2Sc2ccc(Cl)cc2)CC1	-6.47%

SMILES	% Inhibition @ 10 uM
Cc1cc(C)c(S(=O)(=O)NCC23C=CC(O2)C2C(=O)N(c4ccc(Cl)cc4)C(=O)C23)c(C)c1 (stereo not drawn)	2.64%
CCOC(=O)c1cc(-c2ccccc2)n(CC(=O)NC(C)(C)C)c1C	-5.76%
CC(C)NC(=O)c1nc(-c2cccc(F)c2)n2c1CCCCC2	-10.7%
O=C(Cn1nc(Cc2ccncc2)c2ccccc2c1=O)NCc1ccccc1	4.41%
COc1ccc(NC(=O)C2=C(C)Nc3nc(CCCO)nn3C2c2ccc(Br)cc2)cc1 (stereo not drawn)	-0.123%
Cc1ccc(-c2cn3nc(N4CCCC(C(=O)NCc5cccs5)C4)sc3n2)cc1 (stereo not drawn)	5.62%
CCOC(=O)C1=C(C)N=c2s/c(=C\c3ccc(C)cc3)c(=O)n2C1c1ccc2c(c1)OCO2 (stereo not drawn)	3.32%
Cc1cccc(OCCn2cccc2/C=C2/C(=N)N3C=CSC3=NC2=O)c1	3.59%
O=C(COc1ccccc1)Nc1ccccc1F	2.13%
CC(=O)c1cccc2c1N=C1CC(C)(C)CC(=O)C1=CN2	-0.736%
CCOC(=O)N1CCN(CN2C(=O)/C(=N/c3ccc(OC)cc3)c3ccccc32)CC1	-0.725%
Clc1cccc(N2CCN(Cc3cccc4ccccc34)CC2)c1	1.55%
CCOC(=O)c1ccc(CNC(=O)Cn2nnc(-c3ccccc3)n2)o1	-4.04%
O=C(c1cccs1)N1CCN(c2cccc(Cl)c2)CC1	-1.05%
CC1=C(CCN2CCN(c3cccc(C(F)(F)F)c3)CC2)C(C)(C)CCC1	-3.5%
O=C(COc1ccc(Cl)cc1Cl)c1ccc(Cl)cc1	1.66%
COc1ccc(-c2noc(CN(C)S(=O)(=O)c3c(C)cc(C)cc3C)n2)cc1	0.758%
N#Cc1ccc(NC(=O)CSc2ncccn2)cc1	-1.44%
Cc1cccc(CCNc2nc3ccccc3n3cnnc23)c1	1.86%
Cc1nnc2c(Oc3cccc4ccccc34)nc3ccccc3n12	1.84%
CCC(C)NC(=O)CCc1cn(CC)c2ccccc12 (stereo not drawn)	-3.44%
CC(C)(C)c1ccc(OCC(O)Cn2c(CO)nc3ccccc32)cc1 (stereo not drawn)	3.35%
OC1(C#CC#CC2(O)CCCCC2)CCCCC1	4.73%
COc1ccc(-c2nn(C)c3sc(C(=O)N4CC(C)CC(C)C4)cc23)cc1OC (stereo not drawn)	4.51%
Cc1cc(C)cc(Oc2nc3c(C)cccn3c(=O)c2/C=C(\C#N)C(=O)NCc2ccco2)c1	3.63%
Cn1c(SCC(=O)NCCOCCO)nc2sc3c(c2c1=O)CCCC3	-7.3%

SMILES	% Inhibition @ 10 uM
CC(C)Oc1ccc(-c2cc(C(=O)Nc3ccc(S(N)(=O)=O)cc3)c3ccccc3n2)cc1	2.79%
CC(CC(=O)O)(C(=O)O)c1ccccc1 (stereo not drawn)	-9.18%
CCCN1CCC(NCCN(C)C)CC1	-3.6%
Cc1nc2nc(NC(=O)Cc3ccc(Cl)cc3)nn2c(O)c1C	3.66%
Cc1c(Cl)c([N+](=O)[O-])nn1CC(=O)N1CCN(C)CC1	5.03%
O=C(NC1CCC(NC(=O)c2cccc(F)c2)CC1)c1cccc(F)c1 (stereo not drawn)	2.22%
O=C(O)CNc1nn[nH]n1	-0.0709%
CC(=O)Nc1ccc(CN2CC(C)CC(C)C2)cc1 (stereo not drawn)	5.03%
O=C(Cc1cccc2ccccc12)NCC1(c2ccccc2)CCOCC1	7.73%
COC(=O)C1=CN(Cc2ccc(F)cc2)C=C(C(=O)OC)C1c1cccc(OCc2ccccc2)c1	-6.93%
CN(C)CCNc1oc(/C=C/c2cccs2)nc1C#N	3.27%
CCCC1CCC(C2CCC(OC(=O)CC(=O)c3ccc(Br)cc3)CC2)CC1 (stereo not drawn)	2.23%
CN1CCCC1C(O)(c1ccccc1)c1ccccc1 (stereo not drawn)	-0.582% and -3.6%
COc1ccc(NC(=O)CN(c2ccc(C(C)C)cc2)S(C)(=O)=O)cc1OC	-7.23%
c1ccc2c(CN3CCOCC3)cccc2c1	-1.78%
COc1ccc(-c2cc(C)no2)cc1S(=O)(=O)N1CCC(Cc2ccccc2)CC1	3.7%
CC(NC(=O)c1cnn(-c2ccccc2)c1-n1cccc1)c1ccccc1 (stereo not drawn)	-1.8%
CCc1nn(C(C)C(=O)NC(C)CCc2ccco2)c(=O)c2cc3occc3n12 (stereo not drawn)	1.38%
Cc1ccc(NC(=O)COc2ccc(CO)cc2Cl)cc1	2.25%
CCNC(=O)c1ccc(N2C(=O)CSC23C(=O)Nc2ccccc23)cc1 (stereo not drawn)	-7.23%
CCN1CCN(Cc2nc3ccccc3c(=O)n2-c2ccc(F)cc2)CC1	-1.17%
O=C(Cn1ncc2c3ccccc3nc-2c1O)NCc1ccc2c(c1)OCO2	-7.73%
N#CC1=C2SCC(O)(c3ccc(F)cc3)N2C(=O)CC1c1ccc(C(F)(F)F)cc1 (stereo not drawn)	6.31%
CCc1ccc(N(CC(=O)N2CCN(C)CC2)S(=O)(=O)c2ccccc2)cc1	-2.74%
Clc1ccc(Nc2ccc3ccccc3n2)cc1	5%
Cc1cc2ncn(CC(O)COCc3ccccc3)c2cc1C (stereo not drawn)	-0.988%

SMILES	% Inhibition @ 10 uM
Cc1ccc(C2=NS(=O)(=O)N(C)C(C(=O)NCC34CC5CC(CC(C5)C3)C4)=C2)cc1	-2.84%
Cc1ccc(OCCCN2CCCCC2)cc1	2.7%
COc1cc(/C=C2\SC(N3CCCC3)=NC2=O)cc(OC)c1OC	7.3%
CCOC(=O)c1sc(NC(=O)c2ccc(OC)c(OC)c2)nc1C	9.47%
Nc1nc(SCC(=O)NCc2ccccn2)nc2sc3c(c12)CCCC3	2.37%
CN(c1ccc(O)cc1)c1ccc2nonc2c1[N+](=O)[O-]	4.15%
Cc1ccc(CN2CCC(CNS(=O)(=O)c3cc(-c4cc(C)no4)ccc3C)C2)cc1 (stereo not drawn)	-5.69%
Clc1ccc(-c2nc(Cc3ccccc3)no2)cc1	3%
Cc1ccccc1/C=C/[n+]1ccccc1	1.57%
O=C(CCNC(=O)c1ccc(Br)o1)NCc1ccccc1Cl	3.08%
COc1ccc(S(=O)(=O)NCc2ccc(C)cc2)cc1OC	3.47%
CN(c1ccc(C(=O)NC2CCCCCC2)cc1)S(C)(=O)=O	5.66%
O/N=C/c1ccc(-c2ccc(Br)cc2)o1	-3.98%
CCC1CCCCN1c1c(-c2ccc(C)cc2)c(=O)c1=O (stereo not drawn)	-1.4%
CC(C(=O)c1ccccc1)n1nnc2sc3c(c2c1=O)CCCC3 (stereo not drawn)	7.04%
N#Cc1cccc(NC(=O)c2ccccc2C(=O)O)c1	-4.08%
CN(C)c1oc(/C=C/c2cccs2)nc1C#N	-3.49%
CCOc1ccc(-c2cn3c(n2)sc2cc(C(=O)NC(C)CC)ccc23)cc1 (stereo not drawn)	1.09%
Cc1cc(N2CCC(C(=O)N(C)CCC#N)CC2)n2nc(C)c(-c3ccc(Cl)cc3)c2n1	-5.58%
CC(C)CCNC(=O)CSc1nc2ccccc2c2nc(-c3ccccc3)nn12	-1.15%
CC(=O)N1c2ccc(C)cc2C(Nc2ccc(C)cc2)CC1C (stereo not drawn)	1.84%
COc1cccc(C2=NOC(C(=O)Nc3cc(C)on3)C2)c1OC (stereo not drawn)	8.81%
CCc1ccc(-n2nnc(-c3nsc(NC(=O)c4cccc(F)c4)n3)c2C)cc1	-2.85%
COc1cc(OC)c(C(=O)NCc2nc(-c3ccc(Cl)cc3)no2)cc1OC	-1.22%
